Data taken from PubChem BioAssay AID2528 (National Center for Advancing Translational Sciences (NCATS), 2010).
“And” between values parts separate entries of the source, which are not always exact repeats. Equal values may be shown once. Hit rate of the full screen: of about 350,000 compounds, about 700 (0.2%) were called active. Inconclusive results, whose numbers are uncertain, are shown with a selection of clear calls. Calls follow the shape of the dose curve; as a rule, active = well fitted inhibition curve with a large enough effect; inconclusive = small, poorly fitted or top-dose-only effect; inactive = flat fitted curve, though single readings scatter. No potency is given beside an inconclusive call; the fits are too rough.

These compounds were tested against RecQ-like DNA helicase BLM (Homo sapiens) (UniProt P54132) (assay: qHTS Assay for Inhibitors of Bloom's syndrome helicase (BLM)). Details: recombinant BLM DNA unwinding, fluorescence dequenching; series mostly up to 56.1 µM; activity change, negative = inhibition: at the top concentration.
Also: nearly all actives have a fitted effect of over 35% in size.
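For activity change, negative = inhibition in this document: plate controls were vehicle for no effect and no enzyme for full effect.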
Potency is read from the fitted curve at half-maximal effect; tags tell the direction and shape of the fitted curve.

Sequence of UniProt P54132 (P54132 whole entry, looked up): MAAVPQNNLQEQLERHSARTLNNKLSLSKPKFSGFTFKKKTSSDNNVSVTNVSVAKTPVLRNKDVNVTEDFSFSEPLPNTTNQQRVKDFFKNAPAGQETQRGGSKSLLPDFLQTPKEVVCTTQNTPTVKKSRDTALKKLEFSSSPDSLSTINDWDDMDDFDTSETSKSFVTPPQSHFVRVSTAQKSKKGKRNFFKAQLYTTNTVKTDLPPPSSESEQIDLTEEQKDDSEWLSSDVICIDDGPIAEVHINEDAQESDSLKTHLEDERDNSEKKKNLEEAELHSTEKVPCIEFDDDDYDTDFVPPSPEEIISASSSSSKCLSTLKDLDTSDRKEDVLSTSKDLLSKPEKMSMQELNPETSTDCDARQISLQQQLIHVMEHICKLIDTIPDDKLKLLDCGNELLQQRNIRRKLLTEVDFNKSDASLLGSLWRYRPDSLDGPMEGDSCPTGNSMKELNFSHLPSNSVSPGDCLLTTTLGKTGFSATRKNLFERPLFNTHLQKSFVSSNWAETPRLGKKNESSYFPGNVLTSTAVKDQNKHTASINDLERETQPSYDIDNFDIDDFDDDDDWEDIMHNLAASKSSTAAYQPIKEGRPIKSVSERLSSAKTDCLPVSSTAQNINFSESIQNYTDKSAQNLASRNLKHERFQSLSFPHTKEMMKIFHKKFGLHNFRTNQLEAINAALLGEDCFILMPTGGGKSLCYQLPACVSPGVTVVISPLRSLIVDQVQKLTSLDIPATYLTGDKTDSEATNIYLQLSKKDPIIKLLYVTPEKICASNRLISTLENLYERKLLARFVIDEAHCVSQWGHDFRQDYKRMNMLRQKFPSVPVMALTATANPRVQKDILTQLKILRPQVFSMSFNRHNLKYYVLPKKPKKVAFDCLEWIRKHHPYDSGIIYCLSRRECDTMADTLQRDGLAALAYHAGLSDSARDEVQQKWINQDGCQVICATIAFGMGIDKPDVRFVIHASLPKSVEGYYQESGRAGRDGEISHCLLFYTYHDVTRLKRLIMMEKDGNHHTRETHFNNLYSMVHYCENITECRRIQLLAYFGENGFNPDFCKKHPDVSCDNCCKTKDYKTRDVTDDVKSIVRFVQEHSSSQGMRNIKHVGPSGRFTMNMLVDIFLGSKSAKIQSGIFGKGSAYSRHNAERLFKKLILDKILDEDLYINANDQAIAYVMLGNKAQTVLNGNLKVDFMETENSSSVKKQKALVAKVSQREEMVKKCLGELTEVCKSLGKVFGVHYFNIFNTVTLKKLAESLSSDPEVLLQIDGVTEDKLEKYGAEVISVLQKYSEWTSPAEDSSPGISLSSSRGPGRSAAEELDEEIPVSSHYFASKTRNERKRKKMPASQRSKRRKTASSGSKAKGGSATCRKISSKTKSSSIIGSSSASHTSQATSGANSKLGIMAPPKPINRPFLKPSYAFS

Row | Structure (SMILES) | Potency | activity change, negative = inhibition
1 | C/C1=C2N=C(/C=C3N=C(/C(C)=C4\[N-]C(C)(C5N=C1C(C)(CCC(=O)NCC(C)OP(=O)([O-])O[C@H]1C(O)C(n6cnc7cc(C)c(C)cc76)O[C@@H]1CO)C5CC(N)=O)C(C)(CC(N)=O)C4CCC(N)=O)C(C)(CC(N)=O)C\3CCC(N)=O)C(C)(C)C/2CCC(N)=O.[CH2-]C1OC(n2cnc3c(N)ncnc32)C(O)C1O.[Co] (stereo partly drawn) | inconclusive [inhibitor, single point] | 
2 | CCc1ccccc1NC(=O)c1noc2c1CC(C(C)(C)C)CC2 (stereo not drawn) |  | inactive: -11.7%
3 | O=c1c(O)cccc2cc(O)c(O)c(O)c12 | active: 3.55 µM and active: 12.6 µM | 
4 | CCCOc1ccc(C(=O)NC(=S)NNC(=O)c2c(-c3ccccc3)noc2C)cc1 |  | inactive: -8.57%
5 | COc1cccc(OC)c1-c1nn2c(-c3cc(-c4ccccc4)n[nH]3)nnc2s1 | active: 28.2 µM | 
6 | O=C(Cn1c(=O)n(Cc2ccco2)c(=O)c2c3c(sc21)CCCCC3)Nc1ccccc1 | active: 20 µM | 
7 | Cc1ccc(-c2c3c([nH]c(=S)c2C#N)CCCC3)o1 | inconclusive [inhibitor, single point] | 
8 | COc1ccc(/C=C/C(=O)OCCC(C)C)cc1 |  | inactive: -10.1%
9 | CCOc1ccc(N2CSC3=C(C#N)C(c4ccco4)CC(=O)N3C2)cc1 (stereo not drawn) | inconclusive [inhibitor, single point] | 
10 | O=C(CSc1ccc(-c2ccco2)nn1)NCc1ccc2c(c1)OCO2 | inconclusive [inhibitor, single point] | 
11 | CN(C)c1nc(N/N=C/c2ccccc2O)nc(Nc2ccc(F)cc2)n1 | inconclusive [inhibitor, single point] | 
12 | Nc1nc(=S)c2ncn([C@H]3O[C@@H](CO)[C@@H](O)[C@@H]3O)c2[nH]1 |  | inactive: 4.88% [at 21.4 µM]
13 | Cc1csc(NC(=O)c2cc(-c3ccco3)nc3ccccc23)n1 | inconclusive [inhibitor, full curve, poor fit] | 
14 | Cc1nn(Cc2ccccc2)c2sc(C(=O)NCc3cccnc3)cc12 | inconclusive [inhibitor, single point] | 
15 | CCOc1ccccc1N(C)C(=O)c1sc2nc3n(c(=O)c2c1C)CCCC3 | inconclusive [inhibitor, partial curve] | 
16 | Cc1ccc(/C=C/C(=O)N2CCc3ccccc32)o1 | inconclusive [inhibitor, partial curve] | 
17 | COc1ccc(NC(=O)CSc2nc3ccccc3n2CC(=O)NCc2ccc(F)cc2)cc1 |  | inactive: -3.35%
18 | Oc1ccccc1Nc1nc(NCc2ccccc2)c2ccccc2n1 | inconclusive [inhibitor, partial curve] | 
19 | CCSC1=N/C(=C\c2ccc(C(=O)O)cc2)C(=O)S1 |  | inactive: 3.3%
20 | COC(=O)c1ccc(CSc2nc3scc(-c4cccs4)c3c(=O)[nH]2)o1 | active: 25.1 µM | 
21 | O=C(CN1C(=O)S/C(=C\c2ccc(O)c([N+](=O)[O-])c2)C1=O)Nc1ccc(N2CCOCC2)cc1 | inconclusive [inhibitor, single point] | 
22 | O=C1C=C(N(CCO)Cc2ccccc2)c2ccccc2C1=O | inconclusive [inhibitor, single point] | 

Row | Structure (SMILES) | Potency | activity change, negative = inhibition
23 | Cn1c(=O)c(C(=O)COC(=O)c2cc(-c3ccco3)nc3ccccc23)c(N)n(CC2CC2)c1=O | inconclusive [inhibitor, partial curve] | 
24 | COc1cccc([C@@H]2Oc3ccc(OC)cc3C[C@H]2OC(=O)Nc2ccc(OC(F)F)cc2)c1 |  | inactive: -2.03%
25 | CC1=NN(c2nc(-c3ccc(Cl)cc3)cs2)C(=O)C1 | inconclusive [inhibitor, single point] | 
26 | Cc1ccc(NS(=O)(=O)c2ccc(C)c(NC(=O)COc3ccc4ccccc4c3)c2)c(C)c1 | inconclusive [inhibitor, partial curve] | 
27 | COc1ccc(NC(=O)CSc2sc3c(O)cc(=O)[nH]c3c2C#N)c(OC)c1 | inconclusive [inhibitor, partial curve] | 
28 | COc1ccc(-c2cc(C3CCN(Cc4cccc(C(F)(F)F)c4)CC3)[nH]n2)cc1 | inconclusive [inhibitor, single point] | 
29 | Cc1ccc(-c2n[nH]c(=S)n2/N=C/C=C/c2ccccc2[N+](=O)[O-])cc1 | inconclusive [inhibitor, single point] | 
30 | O=C(CSc1n[nH]c(-c2ccco2)n1)N1c2ccccc2Sc2ccccc21 | inconclusive [inhibitor, single point] | 
31 | CCOC(=O)c1c(NC(C)=O)sc2c(O)cccc12 |  | inactive: -3.06%
32 | Cn1c(=O)c(Nc2ccc(O)cc2)c2c3c(cccc31)C(=O)c1ccccc1-2 | inconclusive [inhibitor, partial curve] | 
33 | Oc1ccc(-c2cn3c(n2)SCC3)cc1O | active: 15.8 µM | 
34 | O=C1C=C(NCc2ccccc2)c2ccccc2C1=O | inconclusive [inhibitor, single point] | 
35 | O=C(O)c1cccc(NC(=S)NC(NC(=O)c2ccccc2[N+](=O)[O-])C(Cl)(Cl)Cl)c1 (stereo not drawn) |  | inactive: -4.35%
36 | O=C(Cc1ccc(S(=O)(=O)N2CCOCC2)s1)Nc1nc2c(s1)CCCC2 |  | inactive: -1.91%
37 | CCCCCCc1cc2cc(-c3nnc(-c4ccccc4OC)o3)c(=O)oc2cc1O | inconclusive [inhibitor, single point] | 
38 | CC(/C=C1\SC(=S)N(CC(=O)O)C1=O)=C\c1ccccc1 | inactive | 
39 | Cc1c2cnn(CC(=O)Nc3c(F)c(F)cc(F)c3F)c(=O)c2c(C)n1Cc1ccccc1F | inconclusive [inhibitor, partial curve] | 
40 | O=C(CO)[C@@H](O)C(O)[C@@H](O)CO (stereo partly drawn) |  | inactive: 3.34%
41 | CCCCN1CCCc2cc(CN(CCCN3CCOCC3)C(=O)Nc3ccc(CC)cc3)ccc21 |  | inactive: -11.7%
42 | COc1ccc(Cc2nnc(NCCO)[nH]c2=O)cc1 |  | inactive: -3.4%
43 | O=C1NC(=S)S/C1=C\c1ccc(SCc2ccco2)o1 | inconclusive [inhibitor, single point] | 
